Out of some 48,000 compounds screened, about 450 (0.94%) were called active. About 19% were inconclusive and are not listed. The call rests on the fitted dose curve; in most records, active means well fitted inhibition curve with a large enough effect; inconclusive means small, poorly fitted or top-dose-only effect; inactive means no such curve, though single readings can be large or run the other way. This is one part of the list.

Data on 48 compounds can be found in PubChem BioAssay AID1508623 (National Center for Advancing Translational Sciences (NCATS), 2021).

The assay is described as follows: Primary qHTS for Identification of Small Molecule Inhibitors of Huntingtin Promoter Activity. Further: nearly all actives have a fitted effect of over 50% in size. Conditions: HEK293 HTT promoter firefly luciferase reporter (activity 0% = vehicle and -100% = no light), 24 h; series mostly up to 57.5 µM; activity change, negative = inhibition: at the top concentration. Put shortly: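 Firefly luciferase signal from promoter-reporter HEK293 cells was scaled between vehicle (0%) and zero RLU (-100%). Compounds were tested at final concentrations of up to 57.5 uM over 24 h at 37 degrees C. PTC124 at 50 uM final served as control inhibitor.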
On the technique in general: In qHTS, concentration-response curves come from the screen itself.
Regarding `c1ccc(CSc2nc3ncccc3[nH]2)cc1`, the “activity change, negative = inhibition” value is inactive: 39.6%.
Consider `CSc1ccc(C2c3c(oc4cc(C)cc(C)c4c3=O)C(=O)N2Cc2ccco2)cc1` (stereo not drawn), for which the “activity change, negative = inhibition” value was inactive: 1.97%.
The same measure for `CN(C)Cc1ccc(-c2nc3cccc4c3n2CCNC4=O)cc1`: inactive: -3.52%.
As for `O=C1c2[nH]nc(-c3ccccc3O)c2C(c2cccc(OCc3ccccc3)c2)N1CCO` (stereo not drawn), the “activity change, negative = inhibition” value was inactive: -17.3%.
Consider `CCN(CC)C(=O)Cn1c(=O)n(-c2ccc(Cl)cc2)c(=O)c2c3c(sc21)CCC3`, for which the “activity change, negative = inhibition” value is inactive: 0%.
The same measure for `Cc1cn2c(=O)cc(COC(=O)c3cccc(NC(=O)c4ccccc4C)c3)nc2s1`: inactive: -19.8%; for `COc1ccc(-n2nc(C)c3c(C(F)(F)F)cc(-c4cccnc4)nc32)cc1`: inactive: -3.77%; for `COc1ccc(C(=O)COC(=O)C(Cc2c[nH]c3ccccc23)NC(=O)c2ccc(C(C)(C)C)cc2)cc1` (stereo not drawn): inactive: -25.2%.
In the case of `CCOC(=O)c1cc(OC(=O)c2ccccc2C)n(-c2ccccc2)n1`, the “activity change, negative = inhibition” value was inactive: -4.63%.
Under `CC1(C)NC(=O)N(c2ccc([N+](=O)[O-])c(C(F)(F)F)c2)C1=O` stands “inactive”.
The same measure for `COCCCNC(=O)C1CCN(c2nc3ccc(C)cc3[nH]2)CC1`: inactive: 12.8%; for `COc1cccc(N2CCN(C(=O)CCS(=O)(=O)c3ccc4c(c3)oc(=O)n4C)CC2)c1`: inactive: -12.5%.
The same measure for `CC(C)(c1ccc(O)cc1)c1ccc(O)cc1`: inactive: -21.3% [at 116 µM]; for `Cc1cc2oc(=O)cc(C)c2c2occ(-c3ccc(Cl)cc3)c12`: inactive: -7.67%; for `Cc1cccc(N2CCN(C(=O)Cn3ncc4c5ccccc5n(C)c4c3=O)CC2)c1C`: inactive: 18.4%.
As for `COc1ccc(C(=O)Nc2ccc(-n3nncc3-c3ccccc3)cc2)cc1OC`, the “activity change, negative = inhibition” value is inactive: -23.2%.
Take `Cc1ccc2[nH]c3c(=O)n(CC(=O)N4CCCCC4)ncc3c2c1`: the “activity change, negative = inhibition” value was inactive: 12.5%.
`COc1ccc(OC)c(CNC(=O)C2CCN(c3nc4ccccc4nc3C(F)(F)F)CC2)c1`: the “activity change, negative = inhibition” value is inactive: -4.52%.
Take `Cc1ccc(-n2nc(CO)c(C(=O)NCc3cccnc3)n2)cc1`: the “activity change, negative = inhibition” value is inactive: -27.1%.
On to `CCc1ccc(S(=O)(=O)c2cn(Cc3ccccc3)c3cc(F)c(F)cc3c2=O)cc1`, for which the “activity change, negative = inhibition” value was inactive: -17.6%.
Under `Cc1ccc(OCC(=O)Nc2ccc3nc(SCC(=O)N4CCOCC4)sc3c2)cc1` stands inactive: -7.87%; under `COc1ccccc1NC(=O)CSc1ncc2c(n1)-c1cc(Cl)ccc1N(Cc1ccccc1)S2(=O)=O`, inactive: -25.9%; under `CCCCNC(=O)CCCn1c(=O)c2ccccc2n(Cc2cccc(Cl)c2)c1=O`, inactive: -25.3%.
With `O=C(NC1CCCC1)c1cc(Nc2cccc(C(F)(F)F)c2)nc2ccccc12`, the “activity change, negative = inhibition” value is inactive: -13.4%.
As to `CCC(=O)N1CCc2cc(Br)cc(S(=O)(=O)CCC(=O)N3CCN(c4ccccc4F)CC3)c21`, the “activity change, negative = inhibition” value was inactive: -5.52%.
As to `Cc1ccc(C(C)OC(=O)C2(C)CCC(C(=O)O)C2(C)C)cc1` (stereo not drawn), the “activity change, negative = inhibition” value was inactive: 1.2%.
The same measure for `NC(=O)c1nc(Nc2ccccc2)sc1NC(=O)c1ccccc1Br`: inactive: 1.18%.
The same measure for `COCCCNC(=O)CSc1nc2c(sc3ccccc32)c(=O)n1CCc1ccccc1`: inactive: 0.781%.
The same measure for `COc1cc(NC(=O)CSc2nc3ccccc3nc2Cc2ccc(Cl)cc2)cc(OC)c1`: inactive: -7.61%; for `C[C@@H](Cc1cc2c(c(C(N)=O)c1)N(CCCO)CC2)NCCOc1ccccc1OCC(F)(F)F`: inactive: -11.4%; for `Cc1nc2c(c(C)c1CCC(=O)NCc1ccccc1)c(=O)n(C)c(=O)n2C`: inactive: 2.36%.
`CCOC(=O)c1cccc(NC(=O)c2cc3c(-c4cccc(OC)c4)nn(C)c3s2)c1`: the “activity change, negative = inhibition” value was inactive: -27%.
Turning to `CC(C)(C)c1ccc(OCC(=O)Nc2ccc(S(=O)(=O)Nc3ncccn3)cc2)cc1`, the “activity change, negative = inhibition” value was inactive: -4.79%.
On to `Cc1ccc(S(=O)(=O)c2nc(S(C)(=O)=O)sc2N(C)Cc2ccccc2)cc1`, for which the “activity change, negative = inhibition” value is inactive: -20%.
Consider `Cc1cccc(NC(=O)C2CCC(CNS(=O)(=O)c3csc(C(N)=O)c3)CC2)c1C` (stereo not drawn), for which the “activity change, negative = inhibition” value is inactive: -24.4%.
With `N#Cc1c(N)n(-c2cccc(Cl)c2)c2nc3ccccc3nc12`, the “activity change, negative = inhibition” value was inactive: -4.15%.
The same measure for `COc1cccc(Nc2cc(C)nc3nc(-c4ccc(Cl)cc4)nn23)c1`: inactive: -4.89%; for `Cc1nn2c(=O)cc(COc3ccc(/C=C(\C#N)C(=O)Nc4ccc(F)cc4)cc3)nc2s1`: inactive: -5.24%; for `Cc1nn(C)c2c1c(-c1ccccc1)cc(=O)n2CC(=O)Nc1ccccc1C(F)(F)F`: inactive: -15%.
`O=C(COc1ccccc1Cl)Nc1nnc(S(=O)(=O)N2CCCCCC2)s1`: the “activity change, negative = inhibition” value is inactive: -18.1%.
Turning to `O=C(NCCCc1nc2ccccc2n1Cc1c(F)cccc1Cl)C1CCCCC1`, the “activity change, negative = inhibition” value was inactive: -0.721%.
Consider `Cc1cn2c(=O)cc(COc3ccc(Cl)cc3)nc2s1`, for which the “activity change, negative = inhibition” value was inactive: 20.2%.
Under `COc1cc(NC(=O)Nc2cccc(-c3noc(C)n3)c2)cc(OC)c1OC` stands inactive: -27.8%; under `CCOc1ccc(-n2c(=O)c3c(C)c(C)sc3n(CC(=O)N(CC)Cc3ccccc3)c2=O)cc1`, inactive: -1.86%.
Under `Cc1ccc(Cl)cc1NC(=O)Cc1ccc(-n2c(C)nc3cccnc32)cc1` stands inactive: -24.5%.
Regarding `CCOc1ccc(CNc2nc3nc(C)c(Cc4ccccc4)c(=O)n3[nH]2)cc1`, the “activity change, negative = inhibition” value is inactive: -2.24%.
The same measure for `COc1ccc2c(c1)CC(C(=O)Nc1cc(Cl)ccc1C)CO2` (stereo not drawn): inactive: -24.2%; for `CCc1ccc(CNC(=O)C2Cc3cc(S(=O)(=O)N4CCCCCC4)ccc3N2C(C)=O)cc1` (stereo not drawn): inactive: -11.3%.
